31 molecules from article PMC9911399, “Two distinct binding modes provide the RNA-binding protein RbFox with extraordinary sequence specificity” can be followed below.

Sequences and labels used below:
T1: RBFOX1 RRM RbFoxmut (Fox-RRM*) (Homo sapiens, UniProt Q9NWB1 109-208, R118D;E147R;N151S;E152T)
T1 sequence: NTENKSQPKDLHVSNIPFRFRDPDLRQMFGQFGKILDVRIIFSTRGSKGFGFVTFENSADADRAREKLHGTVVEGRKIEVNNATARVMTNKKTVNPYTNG

B1: CGUUUAU (DNA:RNA)
RNA: GGGAGACCGGAAUUCAGAUUGUCCCGUUUAUUUAAAUCCCGUCGUAGCCACCA
DNA 1: CAATCTGAATTCCGGTCTCCC
DNA 2: TGGTGGCTACGACGGGATT
B2: CUCGCUU (DNA:RNA)
RNA: B1 RNA with G26U, U27C, U28G, U29C, A30U
DNA 1: CAATCTGAATTCCGGTCTCCC
DNA 2: TGGTGGCTACGACGGGATT
B3: CUCGGCA (DNA:RNA)
RNA: B1 RNA with G26U, U27C, U28G, U29G, A30C, U31A
DNA 1: CAATCTGAATTCCGGTCTCCC
DNA 2: TGGTGGCTACGACGGGATT
B4: GGAAUCA (DNA:RNA)
RNA: B1 RNA with C25G, U27A, U28A, A30C, U31A
DNA 1: CAATCTGAATTCCGGTCTCCC
DNA 2: TGGTGGCTACGACGGGATT
B5: UUACAAU (DNA:RNA)
RNA: B1 RNA with C25U, G26U, U27A, U28C, U29A
DNA 1: CAATCTGAATTCCGGTCTCCC
DNA 2: TGGTGGCTACGACGGGATT
B6: UAUCAAG (DNA:RNA)
RNA: B1 RNA with C25U, G26A, U28C, U29A, U31G
DNA 1: CAATCTGAATTCCGGTCTCCC
DNA 2: TGGTGGCTACGACGGGATT
B7: UUCCGGC (DNA:RNA)
RNA: GGGAGACCGGAAUUCAGAUUGUCCUUCCGGCUUAAAUCCCGUCGUAGCCACCA
DNA 1: CAATCTGAATTCCGGTCTCCC
DNA 2: TGGTGGCTACGACGGGATT
B8: GUCUUAC (DNA:RNA)
RNA: B1 RNA with C25G, G26U, U27C, U31C
DNA 1: CAATCTGAATTCCGGTCTCCC
DNA 2: TGGTGGCTACGACGGGATT
B9: ACCAACU (DNA:RNA)
RNA: B1 RNA with C25A, G26C, U27C, U28A, U29A, A30C
DNA 1: CAATCTGAATTCCGGTCTCCC
DNA 2: TGGTGGCTACGACGGGATT
B10: CUGUGUG (DNA:RNA)
RNA: B1 RNA with G26U, U27G, U29G, A30U, U31G
DNA 1: CAATCTGAATTCCGGTCTCCC
DNA 2: TGGTGGCTACGACGGGATT
B11: CUUUGAU (DNA:RNA)
RNA: B1 RNA with G26U, U29G
DNA 1: CAATCTGAATTCCGGTCTCCC
DNA 2: TGGTGGCTACGACGGGATT
B12: UCGCGUU (DNA:RNA)
RNA: B7 RNA with U26C, C27G, G30U, C31U
DNA 1: CAATCTGAATTCCGGTCTCCC
DNA 2: TGGTGGCTACGACGGGATT
B13: UCUAUCA (DNA:RNA)
RNA: B1 RNA with C25U, G26C, U28A, A30C, U31A
DNA 1: CAATCTGAATTCCGGTCTCCC
DNA 2: TGGTGGCTACGACGGGATT
B14: GAGGUCG (DNA:RNA)
RNA: B1 RNA with C25G, G26A, U27G, U28G, A30C, U31G
DNA 1: CAATCTGAATTCCGGTCTCCC
DNA 2: TGGTGGCTACGACGGGATT
B15: CAGCAUA (DNA:RNA)
RNA: B1 RNA with G26A, U27G, U28C, U29A, A30U, U31A
DNA 1: CAATCTGAATTCCGGTCTCCC
DNA 2: TGGTGGCTACGACGGGATT
B16: CUCAGAA (DNA:RNA)
RNA: B7 RNA with U25C, C28A, G30A, C31A
DNA 1: CAATCTGAATTCCGGTCTCCC
DNA 2: TGGTGGCTACGACGGGATT
B17: CGCUCGA (DNA:RNA)
RNA: B1 RNA with U27C, U29C, A30G, U31A
DNA 1: CAATCTGAATTCCGGTCTCCC
DNA 2: TGGTGGCTACGACGGGATT
B18: UCAAUUC (DNA:RNA)
RNA: B7 RNA with U26C, C27A, C28A, G29U, G30U
DNA 1: CAATCTGAATTCCGGTCTCCC
DNA 2: TGGTGGCTACGACGGGATT
B19: UCCUUCA (DNA:RNA)
RNA: B1 RNA with C25U, G26C, U27C, A30C, U31A
DNA 1: CAATCTGAATTCCGGTCTCCC
DNA 2: TGGTGGCTACGACGGGATT
B20: CUAAUAG (DNA:RNA)
RNA: B1 RNA with G26U, U27A, U28A, U31G
DNA 1: CAATCTGAATTCCGGTCTCCC
DNA 2: TGGTGGCTACGACGGGATT
B21: GCGAUUU (DNA:RNA)
RNA: B1 RNA with C25G, G26C, U27G, U28A, A30U
DNA 1: CAATCTGAATTCCGGTCTCCC
DNA 2: TGGTGGCTACGACGGGATT
B22: ACUUGAA (DNA:RNA)
RNA: B1 RNA with C25A, G26C, U29G, U31A
DNA 1: CAATCTGAATTCCGGTCTCCC
DNA 2: TGGTGGCTACGACGGGATT
B23: AACGUAC (DNA:RNA)
RNA: B1 RNA with C25A, G26A, U27C, U28G, U31C
DNA 1: CAATCTGAATTCCGGTCTCCC
DNA 2: TGGTGGCTACGACGGGATT
B24: GGUUUAG (DNA:RNA)
RNA: B1 RNA with C25G, U31G
DNA 1: CAATCTGAATTCCGGTCTCCC
DNA 2: TGGTGGCTACGACGGGATT
B25: CAGUUUU (DNA:RNA)
RNA: B1 RNA with G26A, U27G, A30U
DNA 1: CAATCTGAATTCCGGTCTCCC
DNA 2: TGGTGGCTACGACGGGATT
B26: GCAGAAG (DNA:RNA)
RNA: B1 RNA with C25G, G26C, U27A, U28G, U29A, U31G
DNA 1: CAATCTGAATTCCGGTCTCCC
DNA 2: TGGTGGCTACGACGGGATT
B27: ACCAACG (DNA:RNA)
RNA: B7 RNA with U25A, U26C, C28A, G29A, G30C, C31G
DNA 1: CAATCTGAATTCCGGTCTCCC
DNA 2: TGGTGGCTACGACGGGATT
B28: AAUAAUC (DNA:RNA)
RNA: B1 RNA with C25A, G26A, U28A, U29A, A30U, U31C
DNA 1: CAATCTGAATTCCGGTCTCCC
DNA 2: TGGTGGCTACGACGGGATT
B29: UCAGUAG (DNA:RNA)
RNA: B1 RNA with C25U, G26C, U27A, U28G, U31G
DNA 1: CAATCTGAATTCCGGTCTCCC
DNA 2: TGGTGGCTACGACGGGATT
B30: GACACCG (DNA:RNA)
RNA: B7 RNA with U25G, U26A, C28A, G29C, G30C, C31G
DNA 1: CAATCTGAATTCCGGTCTCCC
DNA 2: TGGTGGCTACGACGGGATT
B31: AUUGACG (DNA:RNA)
RNA: B1 RNA with C25A, G26U, U28G, U29A, A30C, U31G
DNA 1: CAATCTGAATTCCGGTCTCCC
DNA 2: TGGTGGCTACGACGGGATT

Substitutions are numbered along the chain they refer to; changes in the protein carry UniProt numbers. The list shows a part of the results.

The assay addresses T1, RBFOX1 RRM RbFoxmut (Fox-RRM*). Put plainly: EMSA; HiTS-Eq, 1 nM pool, 10 min; buffer printed only for the single-RNA assays: 10 mM Tris pH 7.5, 150 mM NaCl, 3.4 mM EDTA, 0.001% NP-40, 30 C. To be noted: tags: His6 N-terminal (pET28a); label: 5' 32P. Put shortly:
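A pool of RNA with 7 randomized nucleotides, 5′-radiolabelled and with DNA-annealed flanks, was equilibrated at 1 nM for 10 min in 50 µL with purified RbFox RRM, wild type or mutant, across increasing protein concentrations. Free RNA was separated by 8% native PAGE, excised, reverse-transcribed, barcoded by PCR and sequenced. Relative association constants were obtained from read-count changes of each RNA species versus the control reaction and normalised to the cognate motif.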
A general note: In EMSA bound probe runs differently from free probe, usually more slowly.
As for B1, the binding signal was 0.147 KA relative to UGCAUGU. Take B2: the binding signal is 0.117 KA relative to UGCAUGU. Regarding B3, the binding signal was 0.127 KA relative to UGCAUGU. As to B4, the binding signal is 0.426 KA relative to UGCAUGU.

As for B5, the binding signal is 0.0483 KA relative to UGCAUGU.

In the case of B6, the binding signal is 0.0678 KA relative to UGCAUGU. The figure for B7 is 0.0669 KA relative to UGCAUGU; for B8 it is 0.0985 KA relative to UGCAUGU; for B9 it is 0.0858 KA relative to UGCAUGU.

As to B10, the binding signal is 0.388 KA relative to UGCAUGU. On to B11, for which the binding signal is 0.084 KA relative to UGCAUGU. B12: the binding signal was 0.132 KA relative to UGCAUGU. B13: the binding signal is 0.116 KA relative to UGCAUGU. Turning to B14, the binding signal is 0.187 KA relative to UGCAUGU.

As to B15, the binding signal is 0.137 KA relative to UGCAUGU. Regarding B16, the binding signal was 0.123 KA relative to UGCAUGU. For B17, the binding signal was 0.131 KA relative to UGCAUGU.

In the case of B18, the binding signal was 0.0738 KA relative to UGCAUGU. Consider B19, for which the binding signal is 0.0982 KA relative to UGCAUGU. For B20, the binding signal was 0.0844 KA relative to UGCAUGU. As for B21, the binding signal is 0.0734 KA relative to UGCAUGU. In the case of B22, the binding signal was 0.0965 KA relative to UGCAUGU.

As for B23, the binding signal is 0.115 KA relative to UGCAUGU. For the molecule B24, the binding signal was 0.0977 KA relative to UGCAUGU. Take B25: the binding signal was 0.105 KA relative to UGCAUGU. For B26, the binding signal was 0.0857 KA relative to UGCAUGU. With B27, the binding signal is 0.118 KA relative to UGCAUGU. For the molecule B28, the binding signal was 0.0642 KA relative to UGCAUGU. The value for B29 was 0.126 KA relative to UGCAUGU; that for B30 was 0.0808 KA relative to UGCAUGU. B31: the binding signal was 0.0959 KA relative to UGCAUGU.
